B1: LINE1-mini (parent)
chain: GGCAGAGCUCAACACAGCGUGGCAAAGUGGCUGUGGCUAGACUGCC

The source gives no read counts; variants with many changes may rest on few reads.

The variants in the series derive from B1. The experiment in a line: self-cleavage, relative activity (ratio to wild type); higher = more cleavage; in vitro, sequencing; the parent is a self-cleaving ribozyme.
In the case of GAGAGAGCUCAACACAGCGUGGCAAAAUGGCUGUGGCUAGACUGCU [G2A C3G G27A C46U], the self-cleavage turned out to be 0.27.
On to GACAGGGCUCAACACACCGUGGCAAAGUGGCUGUGGCUAAACUGCG [G2A A6G G17C G40A C46G], for which the self-cleavage turned out to be 0.06.
With GACAGAGCUCAGCACAGCGUGGCAAAGUCUCUCUGGAUAGACUGCC [G2A A12G G29C G30U G33C C37A] the figure was 0.03.
For the variant GACAGGGCUCAACACAGCGGGGCAAAGUGGAUGUGGCUCGACUGCC [G2A A6G U20G C31A A39C], the self-cleavage is 0.06.
For the variant GACAGAGCUCAUCACUGAGUGGCAAAGUGGCUGUUGCUAGACUGCC [G2A A12U A16U C18A G35U], the self-cleavage worked out at 0.17.
With GACAGAGCUCAACACAGCGUGGCAAAGUGGCUGUGGCUCAACUGCC [G2A A39C G40A] the figure was 0.15; with GACAGAGCUAAAGACAGCGUGGCAAAGUGGCUUUGGCUAGACUGCC [G2A C10A C13G G33U], 0.01; with GACAGAGCUCAACACUGCCUGGCAAAGUGGCUGUUGCUACACUGCC [G2A A16U G19C G35U G40C], 0.32.
For GACAGAGCUCAACGCAGGGUGGCAAAGUGGCUGUGGCUAGACUGCC [G2A A14G C18G], the self-cleavage turned out to be 0.09.
On to GACAGAGCUCAUUACAGCGUGGCAAAGUGGAUGUAGCUAGACUGCC [G2A A12U C13U C31A G35A], for which the self-cleavage worked out at 0.04.
On to GACAGAGUUCAACACAGCUUGACAAAGUGGCUGUGGCCAGUCUGCC [G2A C8U G19U G22A U38C A41U], for which the self-cleavage worked out at 0.87.
As to GACAGAGGUCAACACAGCGUGGCAAAGUGCCUGUGGCUAGACUGCC [G2A C8G G30C], the self-cleavage amounted to 0.06.
For the variant GACUGAGCUCAACCCAGCGUGGCAAAGUGGCUGUGGCUAGACUGCC [G2A A4U A14C], the self-cleavage was determined as 0.27.
As to GACGGAGCUCAACACAGCGUGGCAAAGUGUCUGUGGCUAGACUGCC [G2A A4G G30U], the self-cleavage stood at 0.66.
Turning to GAAAGACCUCAACACAGCGUGGCAACGUCGCUGUGGCUAGACUGCC [G2A C3A G7C A26C G29C], the self-cleavage is 0.51.
GACAGAGAUCAACACAGCGUGGCAAAGUGGCUGUGGCUAGACUGCG [G2A C8A C46G]: the self-cleavage amounted to 0.66.
With GACAGGGAUCAACACCGCGUGGCAAAGUUGCUGUGGCUAGACUGCA [G2A A6G C8A A16C G29U C46A] the figure was 0.13; with GACAGAGCUCAACACCGCGUGGCAAAGUGGCUGUGGCUAGUCUGCC [G2A A16C A41U], 0.1.
GAAAGAGCUCAACACAGCGUGGCAAAGCGGCUGUGUAUAGACUGCC [G2A C3A U28C G36U C37A]: the self-cleavage was found to be 0.32.
Turning to GACAGAGCUCCACAUUACGUGGCAAAGUGGCUGUGGCUAGACUGCC [G2A A11C C15U A16U G17A], the self-cleavage was determined as 0.03.
As to GACAGAGCUCAACACAGCGUGGCCAAGUGGCUGUGUCUGGGCUGUC [G2A A24C G36U A39G A41G C45U], the self-cleavage turned out to be 0.01.
As to GAUCGAGCUCAACACAGCGUGGCAAAGUGGCUGUGGCUAGACUGCG [G2A C3U A4C C46G], the self-cleavage came to 0.09.
On to GAAAGUGCUAAACACAACUUGGCAAAGUGGCUGUGGCUAGACUGCC [G2A C3A A6U C10A G17A G19U], for which the self-cleavage came to 0.09.
For the variant GACAGAGCUCAACUCAGCAUGGCAAAGUGGCUGUGGCUAGACUGCC [G2A A14U G19A], the self-cleavage worked out at 0.1.
With GACAGUGCUCAACACAGGGUGGCAAAGUGGCUGUGGCUAGACUGCC [G2A A6U C18G], the self-cleavage was 0.08.
In the case of GACAGAGGUCAACACAGCGUGGCAAAGUGGCUUUGGCUAGACUGCC [G2A C8G G33U], the self-cleavage was 0.03.
Turning to GAUAGAGCUUAACACAGCGUGGCAAAGUGGCUGUGGCUUAACUGCC [G2A C3U C10U A39U G40A], the self-cleavage was determined as 0.07.
With GACAGGGCCCAACACAUCGUGGCAUAGUGGCUGUGGCUAGACUGCC [G2A A6G U9C G17U A25U], the self-cleavage was determined as 0.02.
As to GACAGAGCUCACCACAGCGUGGCAAAGUGGCUGUGGCUUGACUGCC [G2A A12C A39U], the self-cleavage was 0.03.
For GACAGCGCUCAACACAGCGUGGCAGAGUGGCUUUGGCUAGACUGCC [G2A A6C A25G G33U], the self-cleavage was found to be 0.27.
GACAGCGCUCAACACAGCGUGGCACAGUGUCUGUGGGUAGACUGCC [G2A A6C A25C G30U C37G]: the self-cleavage came out at 0.08.
With GACAGAGAUCAACACAGCGUGGAAACGUGGUUGUGGCUAGACUGGC [G2A C8A C23A A26C C31U C45G] the figure was 0.41.
With GACAGAGUCCAACACAGCGUGGCAAAAUGGCUGUGGCUAGACUGCC [G2A C8U U9C G27A], the self-cleavage is 0.06.
GACAGAGCUAAACACAGCGUGGCAAGGUGGGUGUUGCUAGUCUGCC [G2A C10A A26G C31G G35U A41U]: the self-cleavage turned out to be 0.03.
With GACAGAGCUCGACACAGCGUGGCAAAGGGGCUGUGGGUAGACUGCC [G2A A11G U28G C37G], the self-cleavage was determined as 0.
For GACAGAGUUCAACACAGCGUGGAAAAGUGGCUGGGGAUAGACUGCA [G2A C8U C23A U34G C37A C46A], the self-cleavage stood at 0.13.
With GACAGAGCUCAUCACAGCGUGGCAAAGUGGCUGUGGCUAGGCUGCC [G2A A12U A41G] the figure was 0.08; with GACAGAGCUCAACACCGCGUGGCAAAUUGGCUGAGGCUAGACUGCC [G2A A16C G27U U34A], 0.05; with GACAGAGCUCAACACUGCGUGGCAAAGUGGCUGUGGCUAGUCUGGC [G2A A16U A41U C45G], 0.28.
As for GACAGAGCUCAACACAGCGUGGCAACCUGGCUGUGGCUAGACUGCC [G2A A26C G27C], the self-cleavage was 0.33.
For the variant GACAGAGAUCAACACAGCGUGGCAAAGUGGCUGUGGCAAGAAUUCC [G2A C8A U38A C42A G44U], the self-cleavage is 0.35.
In the case of GACAGCGCUCAACACAGCGCGGCAAAUUGGCUAGGGCUAGACUGCC [G2A A6C U20C G27U G33A U34G], the self-cleavage was 0.05.
In the case of GAGAGACCUCAUCAAAGCGUGGCAAAGUGGCUGUGGCUAGACUGCC [G2A C3G G7C A12U C15A], the self-cleavage came to 0.14.
For the variant GACGGAGCUCAACAACGCGUUGCCAAGUGGCUGUGGGUAGACUGGC [G2A A4G C15A A16C G21U A24C C37G C45G], the self-cleavage was 0.22.
On to GACAGUGCUCAACACAGCGUGGCAAAGUGCCUGGGGAUAGACUGCC [G2A A6U G30C U34G C37A], for which the self-cleavage came to 0.04.
Regarding GACAGAGUUCUAGACAGCGUGGCAAAGUGGCUUUGGCCAGACUACU [G2A C8U A11U C13G G33U U38C G44A C46U], the self-cleavage amounted to 0.01.
GACAGAGCUCUACUCAGCGUGGCAAAGUGGUUGUGGCUAAACUGCC [G2A A11U A14U C31U G40A]: the self-cleavage is 0.01.
For GACAGAGAUCAACACAGCGUGGCAAAGUGGCUUCGGCUAGCCUGUC [G2A C8A G33U U34C A41C C45U], the self-cleavage amounted to 0.52.
For GACAGAGAUCAACACAGCGUGGCAAAGUGGUUGUGGAUGGACUGCC [G2A C8A C31U C37A A39G], the self-cleavage was 0.28.
On to GAGAGAGCUCAACACAGCGUGGCAAAGUGGCUGUGGCUAGCCUGCC [G2A C3G A41C], for which the self-cleavage is 0.35.
GACAGAGCUCAACACAGCGUGGCACUGUGGCUGUGGCUAGACUGCC [G2A A25C A26U]: the self-cleavage turned out to be 0.29.
With GACAGAGCUCACCAGAUCGUGGCAAAGUGGCUGUGGCUUGACUGCC [G2A A12C C15G G17U A39U] the figure was 0.06; with GACAGAGCUCUACACAGCGCGGCAAAGUGGCUGUGGCUAGACUGCC [G2A A11U U20C], 0.29; with GACAGAGCUCGAUACAGCGUGGCAAAGUGUCUGCGGCUAGACUGCC [G2A A11G C13U G30U U34C], 0.06.
With GACAGUGCUCAACACAACUUGGAAAAGUGGCUGUGGCUAGACUGCC [G2A A6U G17A G19U C23A] the figure was 0.16.
In the case of GACAGAGUUUAACACAGCGUGGCAAAGUUGCUGUCGCUAGCCUGCC [G2A C8U C10U G29U G35C A41C], the self-cleavage was determined as 0.03.

For the origin of these results see the RNAGym collection of RNA variant scans (doi:10.7554/elife.90254).
